# The other results are listed elsewhere or left out.
# Test system: T1, C. trachomatis L2/434/Bu expressing GFP (CTL2-GFP)
# T1 construct: L2/434/Bu GFP intracellular growth in HeLa cells
# Design: species or system HeLa; C. trachomatis total inclusion area by high-content imaging, normalised to DMSO
# Settings: total inclusion area; 28.5 h, 10 µM; inhibitor
# Summary of the method: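 High-content imaging followed the bulk GFP/resorufin measurement: fixed, Hoechst-stained cells were scored for GFP inclusions and host nuclei per well. Total inclusion area and count served as growth proxies, nuclei number as the viability proxy. MIC calculation matched the bulk assay.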
row,Compound,% of control remaining
1,Cc1ccc(CN2CCCN(C(=O)Cn3nc4ccccn4c3=O)CC2)cc1 [CBK297768],95.6796
2,O=C(CSc1ncccc1C(=O)O)Nc1ccc(Oc2ccccc2)cc1 [CBK266340],108.058
3,Cc1cccc(CN(CC(=O)Nc2ccc(F)cc2F)S(=O)(=O)c2ccc(Cl)cc2)c1 [CBK265164],101.562
4,COc1ccc(C)cc1-n1ccc(C(=O)NC(C)(C)C)n1 [CBK306315],73.3906
5,CC(C)CC(NC(=O)Cc1cccc(O)c1)c1nnc2n1CCNCC2 (stereo not shown) [CBK307183],78.3089
6,CN1CCN(CC(O)COc2ccccc2)CC1 (stereo not shown) [CBK278191G],107.765
7,Cc1cc(C)n(CCC(=O)N2C[C@@H]3CCCCN(CC4CC4)[C@@H]3C2)n1 [CBK285505],100.105
8,CN(C(=O)CCn1c(=O)oc2cc(Cl)ccc21)C1CCNC1 (stereo not shown) [CBK304310C],70.3576
9,CN(C)CCOc1ccc2c(c1)OC1(CCN(C(=O)c3ccc4sc(N)nc4c3)CC1)CC2=O [CBK169380],61.9085
10,CC(C)C(=O)NC(c1ccc(C(C)C)cc1)c1cc([N+](=O)[O-])c2cccnc2c1O (stereo not shown) [CBK265303],77.7102
11,CCN(CC)C(=O)CN1CCN(c2nccnc2OCC2COc3ccccc3O2)CC1 (stereo not shown) [CBK082803T],53.9472
12,c1ccc(CSc2ccc(-c3ccncc3)nn2)nc1 [CBK287638],125.846
13,COc1ccc(S(=O)(=O)Nc2ccncc2)cc1N(C)S(=O)(=O)c1ccccc1 [CBK267179],92.5965
14,O=[N+]([O-])c1cc(S(=O)(=O)Nc2cccc(-c3cnco3)c2)ccc1Cl [CBK067125],26.7659
15,Cc1cc(NS(=O)(=O)c2ccc(NC(=O)c3cc(-c4ccc(C)o4)nc4ccccc34)cc2)nc(C)n1 [CBK262628],104.039
16,CCn1cc(CN(CCO)C(=O)c2cccc(C#N)c2C)cn1 [CBK304196],106.002
17,O=C1O[C@@H](CCl)CN1c1ccc(N2CCOCC2)c(F)c1 [CBK017613],70.2842
18,COc1ccc(CC(=O)Nc2nc(OC)cnc2-c2ccoc2)cc1 [CBK145435],104.432
19,CCCOc1ccc(C(N)CC(=O)O)cc1 (stereo not shown) [CBK261360],97.5727
20,COc1ccccc1C1(O)CCN(CC(O)c2ccc(C(C)(C)C)cc2)CC1 (stereo not shown) [CBK286335],38.3222
21,CN1CCN(c2cc(N3CCN(C(=O)c4ccc(F)cc4F)CC3)c([N+](=O)[O-])cc2F)CC1 [CBK265280],98.5082
22,O=C(Nc1nn(Cc2ccc(Oc3ccccc3)cc2)c2ccccc12)c1ccno1 [CBK048224],78.1711
23,O=C(NCC1CCCO1)c1ccc(-n2ccnc2)c(-n2cccc2)c1 (stereo not shown) [CBK285356],86.0154
24,O=C(CN1CCC2(CC1)CN(CCO)c1ccccc12)Nc1ccc(F)c(Cl)c1 [CBK126761],63.7717
25,FC(F)(F)c1ccncc1-n1cccc1 [CBK021909],93.3974
26,O=C(CSc1nnc(-c2cccnc2)n1-c1ccccc1)Nc1ccc(Br)cc1 [CBK265203],75.0248
27,O=C1CC(C(=O)N2CCN(c3ncccn3)CC2)c2ccccc21 (stereo not shown) [CBK144505],82.1366

row,Compound,% of control remaining
1,CN(Cc1ccccc1)Cc1cc(CC2(NCc3ccccc3)COC2)no1 [CBK289645],105.506
2,c1ccc2c(Sc3nccnc3N3CCCC3)cccc2c1 [CBK089527],93.6652
3,Clc1ccc(COc2ccc(/C=N/Nc3nc(N4CCOCC4)nc(N4CCOCC4)n3)cc2)c(Cl)c1 [CBK262061],102.246
4,Nc1ccc(-c2cncc(NCCc3ccccn3)n2)cc1 [CBK065632],129.486
5,Cc1ccccc1C(NC(=O)C1CCN(C(=O)OCc2ccccc2)CC1)c1ccc(=O)[nH]c1 (stereo not shown) [CBK083200],89.2232
6,CCCCC(=O)/N=C(\N)Nc1nc2ccccc2o1 [CBK287937],7.818
7,Cc1cc(C(F)(F)F)n(CC(C)CNC(=O)Cc2csc(C)n2)n1 (stereo not shown) [CBK306733],71.9598
8,Cc1ccc(Oc2ccc([N+](=O)[O-])cc2F)c(Br)c1 [CBK002821],115.53
9,Cc1cc(F)ccc1OC1(C(=O)O)CCN(Cc2ccoc2)CC1 [CBK307187],26.8477
10,C/C(=N\N=C1\N=C(O)C(CC(=O)O)S1)c1ccco1 (stereo not shown) [CBK021973],71.7712
11,CCSc1nc(=O)c2c(n1C)NC(=O)CC2c1ccccc1 (stereo not shown) [CBK307541],89.0495
12,O=c1c2c([nH]c3nc(NCc4ccc(OCc5ccccc5)cc4)nn13)CCC2 [CBK268044],101.311
13,CCNC(=O)N[C@H]1CO[C@H]2[C@@H]1OC[C@@H]2Nc1nccc(-c2ccc(OC)cc2)n1 [CBK289528],89.0845
14,CCN(C(=O)c1ccncc1)C(CC1CCCCC1)c1ccccc1 (stereo not shown) [CBK061674],65.0561
15,Cn1c(CN2C[C@H](O)C[C@H]2c2nc(-c3ccccc3)no2)nc2ccccc21 [CBK288834],107.417
16,O=C1N=C(NC2CCCC2)OC12CCN(Cc1ccccc1)CC2 [CBK115430],106.749
17,O=[N+]([O-])c1ccccc1/C=N/Nc1nnn[nH]1 [CBK260971],68.9282
18,CCn1c(COc2ccccc2)nnc1Sc1ccc([N+](=O)[O-])cc1C=O [CBK267888],64.5636
19,O=C(CC1CC1)Nc1cc(-c2ccncc2)c[nH]c1=O [CBK116585],95.9091
20,CC(=O)c1cc(CCCO)n(Cc2ccco2)c1C [CBK022013],104.932
21,COc1ccc(C(=O)NCCc2ccc(S(N)(=O)=O)cc2)cc1[N+](=O)[O-] [CBK264335],106.392
22,CCN1c2ccc(-c3cncn3CC(=O)NC(C)(C)C)cc2CC1C (stereo not shown) [CBK281815],122.446
23,O=C(c1cc[nH]n1)N1CCCCC1c1ncc(-c2cccc(F)c2)[nH]1 (stereo not shown) [CBK291217],104.026
24,CN1CCC(N2CCN(C(=O)c3cncc(-c4ccc(C(=O)N5CCOCC5)cc4)c3)CC2)CC1 [CBK158600],83.0216
25,CCc1[nH]nc(O)c1Cc1c(Cl)cccc1Cl [CBK105304],134.697
26,CC(=O)c1cc(CN(C)C(C)c2ccncn2)cs1 (stereo not shown) [CBK307470],100.433
27,Cc1cc(Cl)c(S(=O)(=O)Nc2ccon2)cc1OCC(N)=O [CBK266589],109.46

row,Compound,% of control remaining
1,CSc1ccc(-c2nc(NC(=O)C(C)C)cc3ccccc23)cc1 [CBK085735],89.4457
2,O=C(C1CCCCC1)N1CCCC1c1n[nH]cc1-c1ccncc1 (stereo not shown) [CBK283434],90.5466
3,CSCCC(=O)Nc1cc(C)nc2ccccc12 [CBK122729],84.5569
4,CN(C)Cc1c(O)ccc2occ(C(O)c3ccccc3)c12 (stereo not shown) [CBK261313],115.519
5,CC(Cc1ccccn1)N(C)C(=O)c1cnn(-c2ccc(F)cc2)c1 (stereo not shown) [CBK283316],92.984
6,Nc1cc(N)nc(SCc2cccnc2)n1 [CBK267459],111.548
7,COc1ccc([C@@]23CC[C@@H](NC(=O)c4ccc5c(c4)OC(F)(F)O5)C[C@@H]2N(C)CC3)cc1OC [CBK076658T],80.0555
8,CC(C)(CO)CNc1cncc(-c2cccnc2)n1 [CBK037881],101.527
9,CC(C)Oc1ncc(C(=O)Nc2cnn(CC(N)=O)c2)cc1Cl [CBK306311],19.3243
10,C=Cn1ncc(CN(CCCn2ccnc2)CC2CC=CCC2)c1C (stereo not shown) [CBK283219],104.632
11,O=C(CSc1ccccn1)Nc1ccccc1-c1ccccc1 [CBK263553],89.8484
12,CCOc1cc(C(=S)N2CCOCC2)ccc1OCc1ccccc1 [CBK027466],49.0882
13,C=CCN1C(=O)C2(Nc3ccccc3C(=O)N2c2ccc(Cl)cc2)c2ccccc21 (stereo not shown) [CBK093474],73.3054
14,CC(=O)N1CCc2ccc(NC(=O)c3cc(-c4ccc(C(=O)N5CCOCC5)cc4)cnc3N)cc21 [CBK160205],97.4677
15,Cn1nc(C(=O)NCc2ccccc2)cc1C(=O)NCc1ccccc1 [CBK270004],78.0461
16,Cc1ccc(S(=O)(=O)Nc2ccccc2CNc2ccc(Br)cc2)cc1 [CBK264214],75.9919
17,CC(C)Cc1ccc(C(CC(=O)O)C(=O)O)cc1 (stereo not shown) [CBK286703],106.261
18,COc1ccc(NC(=O)N(CCO)C2CCCCC2)c(OC)c1 [CBK008768],94.5862
19,CN(CCN1CCCCC1)C(=O)Cn1ccnc1-c1ccccc1 [CBK281900],118.377
20,COC(=O)c1ccc(N2CCN(C)CC2)c(NC(=O)c2cc(Br)ccc2OC)c1 [CBK269221],84.7839
21,CC(C)[C@@H](CO)n1c(=O)[nH]c2ncc(-c3cccc4ccccc34)nc21 [CBK064961],78.6271
22,COc1cc(CO)cc(I)c1OCC(=O)Nc1ccccc1 [CBK265950],98.9411
23,OC1CCC(Nc2cncc(-c3cccc4ccccc34)n2)CC1 (stereo not shown) [CBK065902],109.481
24,CCCn1cnc2sc(C(=O)Nc3ccc(C)cc3C)c(C)c2c1=O [CBK071815],108.425
25,COc1ccc(Oc2ccc(C=Cc3nc4sc(C(=O)O)c(C)c4c(=O)[nH]3)cc2[N+](=O)[O-])cc1 [CBK295637],130.714

# — article PMC12040169 (PLOS Biology, 2025)
